# Data as given in paper PMC6919601, “Identification of Plasmodium dipeptidyl aminopeptidase allosteric inhibitors by high throughput screening” (PLoS ONE, 2019).
# The campaign covered roughly 110,000 compounds. About 230 (0.21%) showed an effect of 50% or more. The list shows a part of the results.
# Target: DPAP1 (Plasmodium falciparum, UniProt Q8IIJ9)
# Assay: primary screen, percent inhibition; read by cleavage of a fluorogenic dipeptide substrate; higher = more effect of the substance
# Parameters: species or system P. falciparum D10 trophozoite lysates; single well
# 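Further: 30 min substrate incubation versus DMSO and 10 µM JCP410 controls.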
# DPAP1, sequence (Q8IIJ9 whole entry, looked up): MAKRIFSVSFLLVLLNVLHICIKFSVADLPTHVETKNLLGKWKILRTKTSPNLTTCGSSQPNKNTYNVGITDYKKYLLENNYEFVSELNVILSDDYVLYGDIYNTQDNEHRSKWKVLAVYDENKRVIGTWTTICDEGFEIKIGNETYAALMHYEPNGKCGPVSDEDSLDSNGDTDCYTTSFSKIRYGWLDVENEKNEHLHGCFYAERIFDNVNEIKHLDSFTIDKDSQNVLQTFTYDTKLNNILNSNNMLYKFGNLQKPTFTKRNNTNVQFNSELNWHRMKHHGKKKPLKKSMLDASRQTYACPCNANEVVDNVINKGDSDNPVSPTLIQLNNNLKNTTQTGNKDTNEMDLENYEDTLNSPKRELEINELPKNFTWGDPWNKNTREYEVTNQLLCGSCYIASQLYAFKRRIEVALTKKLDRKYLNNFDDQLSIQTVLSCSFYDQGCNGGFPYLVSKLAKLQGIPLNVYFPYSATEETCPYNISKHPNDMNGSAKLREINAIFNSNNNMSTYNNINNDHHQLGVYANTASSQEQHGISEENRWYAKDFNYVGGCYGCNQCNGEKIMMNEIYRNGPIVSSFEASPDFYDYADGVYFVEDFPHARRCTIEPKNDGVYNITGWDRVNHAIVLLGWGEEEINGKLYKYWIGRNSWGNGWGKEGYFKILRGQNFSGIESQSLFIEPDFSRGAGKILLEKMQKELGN
row,Structure (SMILES),% Inhibition @ 10 uM
1,CCC(Sc1nncn2c1cc1oc(C)cc12)C(=O)N1CCOCC1 (stereo not drawn),4.14%
2,COc1cccc(-c2nnc(-c3cc(Cl)cc(Cl)c3OC)o2)c1,2.4%
3,CN(C)CC1CSCCC1(O)c1cccc(O)c1 (stereo not drawn),-15.4%
4,CCOC(=O)N1CCN(C(C)Cc2ccc(F)cc2)CC1 (stereo not drawn),-3.5%
5,CCc1cc2c(cc3c(=O)n(CCCC(=O)NCc4ccccc4Br)ncn32)s1,1.68%
6,Cn1cc(CC(=O)NCc2ccccn2)c2ccccc21,87.4%
7,Cc1ccc(C(=O)Nc2ccc(S(=O)(=O)N(C)Cc3ccccc3)cc2)cc1,0.913%
8,Cc1ccccc1CN1CCN(C(=O)c2cccc(Cl)c2)CC1,-10.2%
9,Cn1ncc(Cl)c1C(=O)NC1C2CC3CC(C2)CC1C3 (stereo not drawn),2.38%
10,O=C(/C=C/c1ccccc1)Nc1cccc2c1C(=O)c1ccccc1C2=O,-1.38%
11,Cc1ccccc1NC(=O)CN1C(=O)S/C(=C/c2ccncc2)C1=O,3.17%
12,O=C(NCCCN1CCOCC1)C1CCC(CNS(=O)(=O)c2cccc3nsnc23)CC1 (stereo not drawn),-2.25%
13,COc1ccc(C2CC(C(F)(F)F)n3ncc(C(=O)N4CCOCC4)c3N2)cc1 (stereo not drawn),2.7%
14,Cc1sc(NC(=O)c2cc3ccccc3oc2=O)nc1-c1ccccc1,26.4%
15,Cc1c(Cl)ccc(OCCCCCN2CCOCC2)c1C,-2.74%
16,O=C(COc1ccc(S(=O)(=O)NC2CCCC2)cc1)Nc1ccc(Cl)cc1Cl,5.14%
17,Cc1ccc(C(=O)N/C(=C/c2ccccc2F)C(=O)NCCCN(C)C)cc1,-2.59%
18,COc1ccc(C2C(C(C)=O)=C(O)C(=O)N2c2cccnc2)cc1OC (stereo not drawn),-5.3%
19,O=C(c1ccc(COc2ccc3ccccc3c2)cc1)N1CCCC1,-3.13%
20,CC(C)Cn1c(=O)c2ccccc2n2c(-c3ccccc3O)nnc12,3.3%
21,Cc1ccc(-c2[nH]nc3c2C(c2cccs2)C(C#N)=C(N)O3)cc1 (stereo not drawn),1.47%
22,CCN(CC)CCNC(=O)Cn1nc(C)n2c(cc3c(OC)cccc32)c1=O,0.0198%
23,COc1ccc(C(=O)N2CCCc3ccccc32)cc1,0.135%
24,O=C(O)c1ccc(N2C(=O)c3ccc(C(=O)O)cc3C2=O)cc1,-0.216%
25,Cc1ccc(S(=O)(=O)c2nnn3c2nc(NCCC(C)C)c2ccccc23)cc1C,-1.37%
26,Clc1ccc(N2N=C(c3ccccc3)CC2c2ccc(Br)cc2)cc1Cl (stereo not drawn),0.00784%

row,Structure (SMILES),% Inhibition @ 10 uM
1,COc1ccc(-c2cc(C(=O)Nc3cc(C)on3)no2)cc1,2.01%
2,CCOc1ccc(C2c3c(oc4ccccc4c3=O)C(=O)N2c2nc(C)c(C(=O)OC)s2)cc1 (stereo not drawn),70.8%
3,CC(=O)Nc1ccc(NCN2C(=O)C3C4CCC(C4)C3C2=O)cc1 (stereo not drawn),-0.366%
4,COC(=O)c1ccc(COc2ccc(C#N)cc2)o1,3.52%
5,CCCN1CCC(NC2CCCCCCC2)CC1,-3.6%
6,CN(CC(=O)NCc1cccs1)S(=O)(=O)c1cccc2cccnc12,-6.07%
7,CN(C)c1ccc(-n2nc3ccc4ccccc4c3n2)cc1,-4.26%
8,O=S(=O)(CCc1nc2ccccc2[nH]1)c1ccc(Cl)cc1,2.08%
9,CCO/C(O)=C1/C(C)=NC(=S)NC1c1ccccc1 (stereo not drawn),4.41%
10,C=CC(C)N1C(=O)S/C(=C\c2cc(OC)c(N3CCCC3)cc2OC)C1=O (stereo not drawn),-8.95%
11,Cc1ccc(-c2csc(/C(C#N)=C/c3ccco3)n2)c(C)c1,2.54%
12,COc1cccc(/C=C2/C(=O)ON=C2c2ccccc2)c1OC,-0.386%
13,Cc1oc(-c2ccc(F)cc2)cc1-c1nn2c(-c3ccccc3)nnc2s1,4.96%
14,CC(C)c1ccc(C(=O)C2CN3CCC2CC3)cc1 (stereo not drawn),2.14%
15,CCCn1c(CCC(=O)O)ccc1-c1ccc(OC)cc1,7.04%
16,COc1ccc(CN2CCN(Cc3ccco3)CC2)cc1,-1.79%
17,CCCC1=C(C(=O)OCC)C(c2ccc(Br)cc2)C(C#N)=C(N)O1 (stereo not drawn),-10.8%
18,CC(C)c1ccc(CN2CCN(Cc3ccc4c(c3)OCO4)CC2)cc1,-0.0404%
19,Clc1ccc(CCNc2cnnc3c(Cl)cccc23)cc1,-4.21%
20,CC(=O)/C(=C1\NC(C)(C)CC12C=CC(=O)C=C2)c1ccccc1,-4.49%
21,CCOc1ccc(S(=O)(=O)N2CCN=C2c2ccccc2)cc1,-5.38%
22,CC1CN(C/C=C/c2ccccc2)CC(C)O1 (stereo not drawn),-0.603%
23,O=C(CSc1n[nH]c(-c2ccccc2)n1)Nc1cccc2ccccc12,2.45%
24,COc1ccc(C2C(C#N)=C(N)Oc3[nH]nc(C)c32)cc1 (stereo not drawn),-0.744%
25,Cc1ccccc1C(=O)Nc1ccccc1C(=O)Nc1ccccc1,-5.4%
26,Cc1cc(Cl)ccc1OC(C)C(=O)Nc1cnn(CCCC(=O)O)c1 (stereo not drawn),17.2%

row,Structure (SMILES),% Inhibition @ 10 uM
1,CCCS(=O)(=O)NCCc1cc2c(C)ccc(C)c2nc1O,-6.14%
2,C=CCNC(=O)c1ccc(Cl)c(Cl)c1,-4.13%
3,COc1ccc(C(=O)Nc2c(C)ccc3nsnc23)cc1,-2.34%
4,Cc1ccc(O)c(C(=O)CC(O)(c2ccccc2)C(F)(F)F)c1 (stereo not drawn),-0.582%
5,COCCNC(=O)c1cnn2c1NC(c1cccc(OC)c1)CC2C(F)(F)F (stereo not drawn),0.0289%
6,CCOc1ccc(NC(=O)C2CCCC2)cc1,-1.52%
7,Cc1cccc(CNC(=O)c2ccc(-n3cnc4cccnc43)cc2)c1,-2.4%
8,CCOC(=O)C1=C(CN2CC=C(c3ccccc3)CC2)NC(=O)NC1c1ccc(Cl)cc1 (stereo not drawn),0.708%
9,CCC1CCCCN1Cc1nc2c(c(=O)n(C)c(=O)n2C)n1CC(C)C (stereo not drawn),-1.43%
10,CCN(CC)CCCNC(=O)Cn1cnc2c1c(=O)n(C)c(=O)n2C,6.12%
11,CC(C)(C)OC(=O)N1CCC(c2c(C(=O)Nc3ccccn3)cnn2-c2cccc(F)c2)CC1,-1.43%
12,CC1CN(C)C(C)CC1n1nc(O)cc1N (stereo not drawn),-0.45%
13,CC(C)(C)c1ccc(C2C(C(=O)c3ccc4c(c3)OCCO4)=C(O)C(=O)N2Cc2cccnc2)cc1 (stereo not drawn),2.79%
14,Cc1cccc(NS(=O)(=O)c2cc(C(=O)Nc3ccccc3C(=O)O)ccc2C)c1,31.6%
15,COc1cccc2c1cc1c(=O)n(CC(=O)NCCc3c[nH]c4ccccc34)nc(C)n12,0.0198%
16,Cc1ccc(S(=O)(=O)NC2=NCN(Cc3cccnc3)CN2)cc1,3.36%
17,CCCC1=NN2C(=N)/C(=C/c3cc(Br)ccc3OC)C(=O)N=C2S1,0.685%
18,C=CCOc1ccc(C(=O)C2=C(O)C(=O)N(CCN(C)C)C2c2ccc(C(C)C)cc2)cc1C (stereo not drawn),-1.93%
19,O=C(c1cc2c(Cl)nc3ccccc3c2s1)N1CCC2(CC1)OCCO2,-3.06%
20,CN(C)c1ccc(/C=C2\SC(=N)N(c3nccs3)C2=O)cc1,-3.9%
21,CCOc1ccc(NC(=O)CCN2CCN(c3ccccc3)CC2)cc1,-3.72%
22,Cc1ccc(C(=O)NC(C)c2ccc(C)c(C)c2)s1 (stereo not drawn),-2.74%
23,COc1ccccc1CNC(=O)/C=C/c1ccccc1,-3.26%
24,O=C(Nc1cc2nn(-c3ccccc3)nc2cc1Cl)c1ccco1,2.23%
25,Cc1ccc(CN(Cc2ccccc2)C(=S)NCC(=O)NCc2cccnc2)o1,8.9%
26,N#Cc1cc2c(ccc3ccccc32)oc1=O,0.0345%

row,Structure (SMILES),% Inhibition @ 10 uM
1,COC(=O)c1c(NC(=O)Cc2coc3cc(C)cc(C)c23)sc(C(C)=O)c1C,-2.4%
2,Clc1nc(-c2ccccc2)ncc1Oc1ccccc1,3.53%
3,CCOC(=O)C1=C(NC(=O)c2ccc(C)cc2)S/C(=C\c2ccc(CC)s2)C1=O,-3.74%
4,C=CCNC(=O)c1cc(-c2ccc(OC)cc2)nc2ccc(C(C)C)cc12,-4.06%
5,Cc1cccc(CN2CCC(CNC(=O)c3cc4c(C)nc5ccccc5c4o3)CC2)c1,-5.25%
6,COc1ccccc1C1CC(=O)NC(SCc2ccccc2)=C1C#N (stereo not drawn),-6.37%
7,O=C(NC1CC1)c1ccc(CSc2nc3ccncc3n2Cc2ccc(F)cc2)cc1,1.03%
8,COc1cc(OC)cc(C(=O)Nc2ccc(NC(=O)c3cc(OC)cc(OC)c3)cc2)c1,-3.18%
9,O=C(NC1CCCC1)c1ccc(-c2ccccc2)s1,-0.447%
10,CCCC(NC(=O)Nc1cn(CC(C)C)c(=O)c2ccccc12)c1cccs1 (stereo not drawn),-5.38%
11,Cc1c2cnn(CC(=O)NCC3CCCO3)c(=O)c2c(C)n1Cc1ccc(Cl)cc1 (stereo not drawn),-0.447%
12,O=C(NC1(C(F)(F)F)NC(=O)N(c2ccc(F)cc2)C1=O)c1ccccc1F (stereo not drawn),0.475%
13,Cc1cc(C)cc(NC(=O)Nc2ccc(Cl)cc2)c1,2.6%
14,CC(C)C[C@H](NC(=O)OC1CCOc2ccccc21)C(=O)NCC#N (stereo partly drawn),1.71%
15,COc1cccc(OCCCCN2CCOCC2)c1,3.35%
16,Fc1ccc(N2CCN(Cc3cccnc3)CC2)cc1,0.605%
17,Nc1n[nH]c(-c2ccc(Br)cc2)n1,-0.999%
18,O=C(O)/C=C\C(=O)NCCc1ccncc1,-2.5%
19,Cc1cc(C)n2nc(SCC(=O)N(C)Cc3ccccc3)nc2n1,2.57%
20,COc1ccc(CCNc2oc(COc3ccc(Cl)cc3)nc2C#N)cc1,-3.77%
21,c1cc2c[nH]nc2cc1NC1CCSC1 (stereo not drawn),-1.82%
22,N#CCN1CCn2c3c(c4cc(C5CCCCC5)ccc42)CCCC31 (stereo not drawn),1.26%
23,COC(=O)/C=c1\sc2n(c1=O)CCN=2,-1.48%
24,O=C(CN1C(=O)c2cccc3cccc(c23)C1=O)NCCO,-4.26%
